The results in this text go back to ChEMBL document CHEMBL4888484, “Replenishing the malaria drug discovery pipeline: Screening and hit evaluation of the MMV Hit Generation Library 1 (HGL1) against asexual blood stage Plasmodium falciparum ,using a nano luciferase reporter read-out” (2022).

In all, about 150,000 compounds went through this assay and about 540 (0.36%) showed an effect of 50% or more. The list shows a part of the results.

This assay relates to Plasmodium falciparum. Put plainly: Primary screen in NF54 nanoGlo assay, in single point, at 2uM, 72h; a lower Z score goes with more inhibition. The class given is functional, Erythrocyte. The following applies: timepoint 72 hour.
Turning to `Cn1cc(-c2ccc(-c3ccc4c(n3)NCCC4)cc2)cn1`, the “% Inhibition” value is -6% and the Z score came to 1.27.
On the same counts, the results for `Cc1ncnc(N2CCC(N3CCOC3=O)CC2)c1C` are 10% and -0.96.
On the same counts, the results for `CC(C)(C)c1cc(CN2C[C@@H]3CC[C@H]2CN(Cc2cscn2)C3)n[nH]1` are -7% and 0.99.
For `CN(Cc1ncccn1)S(=O)(=O)C[C@H]1COc2ccccc2O1` the same measures were 0% and -0.04.
As to `Cc1ccc([C@H](C)NC(=O)N(C)CCc2noc(C(C)C)n2)cn1`, the “% Inhibition” value is given as -15% and the Z score is 2.07.
On to `CCN(C(=O)c1ccc(C(C)C)cc1)[C@@H](C)CS(C)(=O)=O`, for which the “% Inhibition” value worked out at 3% and the Z score was -0.36.
With `CC(NC(=O)C1CC(=O)N(C2CCS(=O)(=O)C2)C1)C1CC2CCC1C2` (centres undefined), the “% Inhibition” value is on record as -5% and the Z score is recorded as 0.83.
With `COc1cccc([C@@H](C)CCCC(=O)N(C)Cc2c[nH]cn2)c1`, the “% Inhibition” value is given as -5% and the Z score is reported as 0.67.
With `Cc1ccc(-c2ncc(C(=O)NCc3ccccc3)c(N3CCCC[C@@H]3C)n2)cc1`, the “% Inhibition” value was -2% and the Z score is on record as 0.33.
`Cc1cc(-c2noc(CNC(=O)Cn3cnc4ccccc43)n2)no1`: the “% Inhibition” value came to 17% and the Z score was -2.22.
Regarding `CC(=O)Nc1nc(N(C)C)c2nccnc2n1`, the “% Inhibition” value is 10% and the Z score is on record as -1.15.
On to `O=C(CN[C@H]1CCc2ncnn2C1)Nc1ccc(Cl)cn1`, for which the “% Inhibition” value was -7% and the Z score came to 0.9.
For `CCc1noc(C2CCC(NCc3ccc(C(C)C)cc3)CC2)n1` (centres undefined), the “% Inhibition” value is -7% and the Z score turned out to be 0.8.
`CN=C(NC)NCc1ccc(COC(C)C)cc1`: the “% Inhibition” value is given as 3% and the Z score is given as -0.58.
For the compound `CC1CC(CNS(=O)(=O)c2cccc(-n3cnnn3)c2)CCO1` (centres undefined), the “% Inhibition” value is reported as -10% and the Z score is 1.27.
With `CC[C@H](C)N(Cc1csc(COc2ccc(Cl)cc2)n1)C(=O)c1ccc(F)cc1`, the “% Inhibition” value is listed as -2% and the Z score amounted to 0.32.
In the case of `Cc1cc(NS(=O)(=O)c2cc3n(c2)CCN(C(C)C)C3=O)ccc1F`, the “% Inhibition” value is on record as -5% and the Z score was 0.86.
As to `Nc1nccc(N2CCC[C@H](OC(=O)c3ccc4c(c3)CCCC4)C2)n1`, the “% Inhibition” value is -12% and the Z score is given as 1.92.
For `CCCN1CCCN(C(=O)c2ccc(-c3cc(C)c4nccn4c3)cc2)CC1`, the “% Inhibition” value is reported as -13% and the Z score was 1.68.
Regarding `Cc1c(CN2CCn3nc(CCC(=O)NCCO)cc3C2)cc(C#N)n1C`, the “% Inhibition” value was -14% and the Z score was determined as 1.95.
As to `Cc1nnc(CN(Cc2ccccc2)Cc2scnc2C)s1`, the “% Inhibition” value is 8% and the Z score is -1.06.
For `O=S(=O)(CC1CCOC1)N1CCOC(C2CCC2)C1` (centres undefined) the same measures were -4% and 0.77.
Turning to `CCc1sc(C(=O)Nc2cc(S(=O)(=O)N3CCOCC3)ccc2OC)cc1C`, the “% Inhibition” value was -1% and the Z score is listed as 0.11.
For `Cc1ccc(C[C@H](NC(=O)Nc2cc(C)on2)c2cccnc2)cc1` the same measures were -7% and 1.31.
On to `COCCC1(CNC(=O)NCc2cc[nH]n2)CCCC1`, for which the “% Inhibition” value was -7% and the Z score turned out to be 0.84.
For `Cc1nc(CO[C@H]2CCN(CC(=O)Nc3cccc(F)c3)C2)cs1`, the “% Inhibition” value worked out at 5% and the Z score is -0.58.
Consider `COc1ccc2c(C)c(C(=O)N3CCO[C@H]4CCCC[C@@H]43)oc2c1`, for which the “% Inhibition” value is -8% and the Z score stood at 1.67.
Consider `CC(C)OCCc1nc(CC(=O)NC2CCCCC2)no1`, for which the “% Inhibition” value was -2% and the Z score worked out at 0.16.
As for `NC(=O)[C@H]1CCCN(C(=O)Cn2nnc3ccccc3c2=O)C1`, the “% Inhibition” value is reported as -5% and the Z score was 0.72.
As for `CN1C(=O)[C@]2(CCN(C(=O)Nc3ccc4c(c3)OCO4)C2)c2ccccc21`, the “% Inhibition” value was -15% and the Z score is 1.93.
Take `COCCN1CC[C@H](c2ncnn2C2CCCCC2)C1`: the “% Inhibition” value is on record as -7% and the Z score was 1.3.
With `O=C(NCC(=O)N(C1CC1)[C@H]1CCc2ccccc21)NC1CC1`, the “% Inhibition” value was -7% and the Z score is given as 0.95.
In the case of `Cc1nnc(CN(C)Cc2nc3ccccc3o2)o1`, the “% Inhibition” value is on record as -2% and the Z score is recorded as 0.29.
Turning to `O=C(N[C@H]1CCCc2cccnc21)c1cc(C(F)F)ncn1`, the “% Inhibition” value worked out at 3% and the Z score is -0.39.
Regarding `CCN(C(=O)OC(C)(C)C)[C@H](C)CNC(=O)C(C)(C)N1CCN(C)CC1`, the “% Inhibition” value is -2% and the Z score was found to be 0.33.
As for `COc1ccc(-c2nc3ccccc3s2)cc1COc1ccccc1F`, the “% Inhibition” value was 4% and the Z score is reported as -0.49.
For the compound `CO[C@@H](CNC(=O)C1CCOCC1)C(C)(C)C`, the “% Inhibition” value turned out to be 1% and the Z score is -0.21.
As for `COc1ccc(CCc2nc(NC(=O)c3csc(NC4CC4)n3)n[nH]2)cc1`, the “% Inhibition” value was found to be 20% and the Z score is given as -3.8.
Regarding `COc1ccc(OC)c(-c2cc(C(=O)NCc3ccc(-c4ccoc4)cc3)n(C)n2)c1`, the “% Inhibition” value came to 0% and the Z score was -0.05.
Regarding `CCc1cnc([C@H](C)NC(=O)NCCN2CCC(OC)CC2)s1`, the “% Inhibition” value is on record as -15% and the Z score is given as 1.37.
For `COc1nnc(NC(=O)c2ccccc2C2CCC2)s1` the same measures were -2% and 0.2.
As for `COc1ccc(F)c(F)c1CN1CCC(c2ncon2)CC1`, the “% Inhibition” value is -6% and the Z score is reported as 1.05.

What is called % Inhibition is the drop in the measured response relative to a control, in per cent.
